# Measurements published in a collection of fitness landscapes (doi:10.1016/j.celrep.2020.107928).
# Over roughly 81,000 sequences, “one-hybrid fitness for binding parS DNA” has its median near -0.17; the highest 2% begin near 0.51. Some of the results follow.
# B1: Caulobacter ParB omega fusion; a variant is named by its letters at X, in order, B8GW30 (parent)
# chain: MESVVVGEPGMSEGRRGLGRGLSALLGEVDAAPAQAPGEQLGGSREAPIEILQRNPDQPRRTFREEDLEDLSNSIREKGVLQPILVRPSPDTAGEYQIVAGERAWRAAQRAGLKTVPIMVRELDDLAVLEIGIIENVQRADLNVLEEALSYKVLMEKFERTQENIAQTIGKSXSHVANXMRLLXLPDEVQSYLVSGELTAXHARAIAAAADPVALAKQIIEGGLSVRETEALARKAPNLSAGKSKGGRPPRVKDTDTQALESDLSSVLGLDVSIDHRGSTGTLTITYATLEQLDDLCNRLTRGI
# Variants of: B1
# Assay: one-hybrid fitness for binding parS DNA (scaled: cognate 1, non-cognate 0); higher = stronger binding
# Conditions: with parS DNA site
# In short: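 The reporter was HIS3, with the binding site 19 bp from the promoter, in E. coli USO used for bacterial one-hybrid selection of Caulobacter ParB libraries with four specificity codons randomised. Growth was on M9 lacking histidine, with 0.1 mM IPTG and 5 mM 3-AT, for 48 hours at 37°C. Illumina sequencing covered plasmids before and after selection; three replicate libraries were pooled and variants with under 10 reads dropped. A fitness score is the log change in variant-to-wild-type read ratio, rescaled to the cognate and non-cognate references.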
row,Variant,one-hybrid fitness for binding parS DNA
1,CRPL,≤ 0.2
2,RHDH,≤ 0.2
3,TKLQ,≤ 0.2
4,CVKA,≤ 0.2
5,KGPL,≤ 0.2
6,YEQR,≤ 0.2
7,MGHG,≤ 0.2
8,KLKP,≤ 0.2
9,MRME,≤ 0.2
10,RPTK,≤ 0.2
11,HGPM,≤ 0.2
12,TTNE,≤ 0.2
13,QIEF,≤ 0.2
14,EVLA,≤ 0.2
15,CTYS,≤ 0.2
16,WCNR,≤ 0.2
17,QLMY,≤ 0.2
18,SNLI,≤ 0.2
19,SFAN,≤ 0.2
20,MNQL,≤ 0.2
21,ISGG,≤ 0.2
22,VGYG,≤ 0.2
23,YLHN,≤ 0.2
24,VRQH,≤ 0.2

row,Variant,one-hybrid fitness for binding parS DNA
1,YHSD,≤ 0.2
2,LQNT,≤ 0.2
3,PGFG,≤ 0.2
4,KKRP,≤ 0.2
5,HYHT,≤ 0.2
6,CATP,≤ 0.2
7,TFPH,≤ 0.2
8,PLRF,≤ 0.2
9,GCKG,≤ 0.2
10,AAQI,≤ 0.2
11,VNLN,≤ 0.2
12,QAPS,≤ 0.2
13,IRQE,≤ 0.2
14,QFIG,≤ 0.2
15,SAEI,≤ 0.2
16,DVRM,≤ 0.2
17,VKAV,≤ 0.2
18,VVKP,≤ 0.2
19,LSGY,≤ 0.2
20,QNLP,≤ 0.2
21,TLAF,≤ 0.2
22,IATC,≤ 0.2
23,CYVF,≤ 0.2
24,YIYF,≤ 0.2

row,Variant,one-hybrid fitness for binding parS DNA
1,RMLD,≤ 0.2
2,IRWY,≤ 0.2
3,GRYG,≤ 0.2
4,GHCG,≤ 0.2
5,GMKF,≤ 0.2
6,VDRF,≤ 0.2
7,PGFS,≤ 0.2
8,SEAC,≤ 0.2
9,LRHA,≤ 0.2
10,GTWD,≤ 0.2
11,TDKV,≤ 0.2
12,SEEV,≤ 0.2
13,LIFS,≤ 0.2
14,AIHE,≤ 0.2
15,KVKQ,≤ 0.2
16,QWDR,≤ 0.2
17,IIEL,≤ 0.2
18,NVYS,≤ 0.2
19,RQWC,0.797
20,CTGT,≤ 0.2
21,HNTR,≤ 0.2
22,CMAC,≤ 0.2
23,NLCG,≤ 0.2
24,TQYM,≤ 0.2

row,Variant,one-hybrid fitness for binding parS DNA
1,FQRV,≤ 0.2
2,GLHT,≤ 0.2
3,HRGL,≤ 0.2
4,WVFR,≤ 0.2
5,MYCF,≤ 0.2
6,NINR,≤ 0.2
7,CRYE,≤ 0.2
8,RCCG,1.03
9,LHQR,≤ 0.2
10,QTAC,≤ 0.2
11,WTCS,≤ 0.2
12,LPLL,≤ 0.2
13,NARI,≤ 0.2
14,PKSM,≤ 0.2
15,TSSA,≤ 0.2
16,SRIM,≤ 0.2
17,PRRN,≤ 0.2
18,MPEV,≤ 0.2
19,DTKL,≤ 0.2
20,FLQC,≤ 0.2
21,ECRK,≤ 0.2
22,VFEG,≤ 0.2
23,VLHR,≤ 0.2
24,NHKF,≤ 0.2

row,Variant,one-hybrid fitness for binding parS DNA
1,NPYG,≤ 0.2
2,THCV,≤ 0.2
3,AYLT,≤ 0.2
4,QLNS,≤ 0.2
5,VCQT,≤ 0.2
6,AVLI,≤ 0.2
7,LGDC,≤ 0.2
8,WHSC,≤ 0.2
9,GGMC,≤ 0.2
10,EVTY,≤ 0.2
11,QLTA,≤ 0.2
12,DPHL,≤ 0.2
13,HLRE,≤ 0.2
14,WFRT,≤ 0.2
15,PYCT,≤ 0.2
16,MANL,≤ 0.2
17,QNLS,≤ 0.2
18,SIGR,≤ 0.2
19,RTPG,0.764
20,SHHG,≤ 0.2
21,SSHK,≤ 0.2
22,QIAG,≤ 0.2
23,NWSS,≤ 0.2
24,QPSM,≤ 0.2

row,Variant,one-hybrid fitness for binding parS DNA
1,VRDK,≤ 0.2
2,AVVS,≤ 0.2
3,VVVG,≤ 0.2
4,TYIC,≤ 0.2
5,RTKH,0.439
6,NCME,≤ 0.2
7,LVQA,≤ 0.2
8,IVGW,≤ 0.2
9,IMAR,≤ 0.2
10,PVEI,≤ 0.2
11,GTVT,≤ 0.2
12,VHEL,≤ 0.2
13,NKYM,0.219
14,WLWM,≤ 0.2
15,EFRN,≤ 0.2
16,NFRK,≤ 0.2
17,NFVS,≤ 0.2
18,VLYT,≤ 0.2
19,GTQV,≤ 0.2
20,APIP,≤ 0.2
21,VPHM,≤ 0.2
22,QTFG,≤ 0.2
23,AIPM,≤ 0.2
24,NYWL,≤ 0.2

row,Variant,one-hybrid fitness for binding parS DNA
1,NWLR,≤ 0.2
2,CNGN,≤ 0.2
3,YTHC,≤ 0.2
4,ELHC,≤ 0.2
5,KYNS,≤ 0.2
6,MKPT,≤ 0.2
7,MDMS,≤ 0.2
8,NYGC,≤ 0.2
9,TVSK,≤ 0.2
10,GEDG,≤ 0.2
11,WRAW,≤ 0.2
12,PYME,≤ 0.2
13,LVRC,≤ 0.2
14,FKHG,≤ 0.2
15,TPPC,≤ 0.2
16,PCQW,≤ 0.2
17,MNWI,≤ 0.2
18,KCSG,≤ 0.2
19,LTVT,≤ 0.2
20,LDNT,≤ 0.2
21,MDCV,≤ 0.2
22,YLRT,≤ 0.2
23,HRGT,≤ 0.2
24,NMKV,≤ 0.2

row,Variant,one-hybrid fitness for binding parS DNA
1,TDYF,≤ 0.2
2,QKTA,≤ 0.2
3,PDSA,≤ 0.2
4,QCDE,≤ 0.2
5,QSHT,≤ 0.2
6,APSF,≤ 0.2
7,YKHR,≤ 0.2
8,PQQC,≤ 0.2
9,CCSL,≤ 0.2
10,MRGR,≤ 0.2
11,QTHS,≤ 0.2
12,LPSM,≤ 0.2
13,PGDC,≤ 0.2
14,QMNA,≤ 0.2
15,NQAS,≤ 0.2
16,TFAY,≤ 0.2
17,DTSV,≤ 0.2
18,MDDM,≤ 0.2
19,LDRS,≤ 0.2
20,QAAG,≤ 0.2
21,VPNT,≤ 0.2
22,HWQR,≤ 0.2
23,FSCR,≤ 0.2
24,FQRR,≤ 0.2

row,Variant,one-hybrid fitness for binding parS DNA
1,RPMP,≤ 0.2
2,QTHT,≤ 0.2
3,RCPK,≤ 0.2
4,SHGR,≤ 0.2
5,IEPS,≤ 0.2
6,MTSV,≤ 0.2
7,ASRF,≤ 0.2
8,AQSL,≤ 0.2
9,LMEM,≤ 0.2
10,ISNL,≤ 0.2
11,QCTT,≤ 0.2
12,HIIG,≤ 0.2
13,PREY,≤ 0.2
14,MPKS,≤ 0.2
15,RHMH,≤ 0.2
16,TALC,≤ 0.2
17,RYKM,0.369
18,SGEF,≤ 0.2
19,IGTT,≤ 0.2
20,NNPN,≤ 0.2
21,QPLW,≤ 0.2
22,CQNK,≤ 0.2
23,KFKC,≤ 0.2
24,STAY,≤ 0.2

row,Variant,one-hybrid fitness for binding parS DNA
1,ERTG,≤ 0.2
2,HCDN,≤ 0.2
3,PQPG,≤ 0.2
4,WPLI,≤ 0.2
5,QRAF,≤ 0.2
6,QLVV,≤ 0.2
7,RLWE,≤ 0.2
8,SAPY,≤ 0.2
9,VYST,≤ 0.2
10,CLKC,≤ 0.2
11,PKDM,≤ 0.2
12,TVTA,≤ 0.2
13,RWEI,≤ 0.2
14,ANPQ,≤ 0.2
15,PTWT,≤ 0.2
16,SVPV,≤ 0.2
17,SRPQ,≤ 0.2
18,NLEI,≤ 0.2
19,MQLT,≤ 0.2
20,EGAR,≤ 0.2
21,AYYW,≤ 0.2
22,NFPD,≤ 0.2
23,SDLC,≤ 0.2
24,ARLG,≤ 0.2

row,Variant,one-hybrid fitness for binding parS DNA
1,RFTI,≤ 0.2
2,PDFY,≤ 0.2
3,GVNQ,≤ 0.2
4,ESET,≤ 0.2
5,KVHE,≤ 0.2
6,HRES,≤ 0.2
7,VNQG,≤ 0.2
8,AVMS,≤ 0.2
9,AMHG,≤ 0.2
10,GIEK,≤ 0.2
11,CVLD,≤ 0.2
12,KTRF,≤ 0.2
13,MFVR,≤ 0.2
14,HPWG,≤ 0.2
15,SNSG,≤ 0.2
16,QYIY,≤ 0.2
17,VIIE,≤ 0.2
18,AEVV,≤ 0.2
19,QAYP,≤ 0.2
20,SNTL,≤ 0.2
21,QHLA,≤ 0.2
22,VHKS,≤ 0.2
23,FRFT,≤ 0.2
24,TDQS,≤ 0.2

row,Variant,one-hybrid fitness for binding parS DNA
1,GAEY,≤ 0.2
2,RING,1.03
3,VIII,≤ 0.2
4,RYLE,≤ 0.2
5,IAED,≤ 0.2
6,FSTY,≤ 0.2
7,NMIS,≤ 0.2
8,CSHG,≤ 0.2
9,FLTF,≤ 0.2
10,ADRL,≤ 0.2
11,PVVC,≤ 0.2
12,NFQG,≤ 0.2
13,SGTV,≤ 0.2
14,QMIP,≤ 0.2
15,PHRS,≤ 0.2
16,MSIS,≤ 0.2
17,MCNS,≤ 0.2
18,PCLS,≤ 0.2
19,SRAH,≤ 0.2
20,NDRT,≤ 0.2
21,KNTR,≤ 0.2
22,AAIM,≤ 0.2
23,DVTT,≤ 0.2
24,QWAF,≤ 0.2

row,Variant,one-hybrid fitness for binding parS DNA
1,PKTH,≤ 0.2
2,LEKT,≤ 0.2
3,FNAV,≤ 0.2
4,DITL,≤ 0.2
5,TWKV,≤ 0.2
6,LYRE,≤ 0.2
7,YSFC,≤ 0.2
8,DTEG,≤ 0.2
9,HHGY,≤ 0.2
10,QCGH,≤ 0.2
11,HAKT,≤ 0.2
12,TPSL,≤ 0.2
13,PFVG,≤ 0.2
14,QTKI,≤ 0.2
15,LQMV,≤ 0.2
16,MHVY,≤ 0.2
17,FTSQ,≤ 0.2
18,YREE,≤ 0.2
